The text below walks through data of article PMC9911399, “Two distinct binding modes provide the RNA-binding protein RbFox with extraordinary sequence specificity”.

Positions count from the first letter of the chain named. Some of the results follow.

First the molecules themselves.
B1: UCAGAGA (DNA:RNA)
RNA: GGGAGACCGGAAUUCAGAUUGUCCUCAGAGAUUAAAUCCCGUCGUAGCCACCA
DNA 1: CAATCTGAATTCCGGTCTCCC
DNA 2: TGGTGGCTACGACGGGATT
B2: AGAAGUG (DNA:RNA)
RNA: B1 RNA with U25A, C26G, G28A, A29G, G30U, A31G
DNA 1: CAATCTGAATTCCGGTCTCCC
DNA 2: TGGTGGCTACGACGGGATT
B3: GCCCCGA (DNA:RNA)
RNA: B1 RNA with U25G, A27C, G28C, A29C
DNA 1: CAATCTGAATTCCGGTCTCCC
DNA 2: TGGTGGCTACGACGGGATT
B4: AAUUUCU (DNA:RNA)
RNA: GGGAGACCGGAAUUCAGAUUGUCCAAUUUCUUUAAAUCCCGUCGUAGCCACCA
DNA 1: CAATCTGAATTCCGGTCTCCC
DNA 2: TGGTGGCTACGACGGGATT
B5: UAUUGAU (DNA:RNA)
RNA: B4 RNA with A25U, U29G, C30A
DNA 1: CAATCTGAATTCCGGTCTCCC
DNA 2: TGGTGGCTACGACGGGATT
B6: CUAGUAC (DNA:RNA)
RNA: B1 RNA with U25C, C26U, A29U, G30A, A31C
DNA 1: CAATCTGAATTCCGGTCTCCC
DNA 2: TGGTGGCTACGACGGGATT
B7: UUGCAGU (DNA:RNA)
RNA: B1 RNA with C26U, A27G, G28C, A31U
DNA 1: CAATCTGAATTCCGGTCTCCC
DNA 2: TGGTGGCTACGACGGGATT
B8: UUUGCUA (DNA:RNA)
RNA: B1 RNA with C26U, A27U, A29C, G30U
DNA 1: CAATCTGAATTCCGGTCTCCC
DNA 2: TGGTGGCTACGACGGGATT
B9: UGGUUUC (DNA:RNA)
RNA: B4 RNA with A25U, A26G, U27G, C30U, U31C
DNA 1: CAATCTGAATTCCGGTCTCCC
DNA 2: TGGTGGCTACGACGGGATT
B10: CGACGAC (DNA:RNA)
RNA: B1 RNA with U25C, C26G, G28C, A29G, G30A, A31C
DNA 1: CAATCTGAATTCCGGTCTCCC
DNA 2: TGGTGGCTACGACGGGATT
B11: GGGGAUA (DNA:RNA)
RNA: B1 RNA with U25G, C26G, A27G, G30U
DNA 1: CAATCTGAATTCCGGTCTCCC
DNA 2: TGGTGGCTACGACGGGATT
B12: CAAUCCA (DNA:RNA)
RNA: B4 RNA with A25C, U27A, U29C, U31A
DNA 1: CAATCTGAATTCCGGTCTCCC
DNA 2: TGGTGGCTACGACGGGATT
B13: AACCGUU (DNA:RNA)
RNA: B4 RNA with U27C, U28C, U29G, C30U
DNA 1: CAATCTGAATTCCGGTCTCCC
DNA 2: TGGTGGCTACGACGGGATT
B14: GGAGCAA (DNA:RNA)
RNA: B1 RNA with U25G, C26G, A29C, G30A
DNA 1: CAATCTGAATTCCGGTCTCCC
DNA 2: TGGTGGCTACGACGGGATT
B15: UAGCCCA (DNA:RNA)
RNA: B4 RNA with A25U, U27G, U28C, U29C, U31A
DNA 1: CAATCTGAATTCCGGTCTCCC
DNA 2: TGGTGGCTACGACGGGATT
B16: AAAGUCC (DNA:RNA)
RNA: B4 RNA with U27A, U28G, U31C
DNA 1: CAATCTGAATTCCGGTCTCCC
DNA 2: TGGTGGCTACGACGGGATT
B17: UGCAAUC (DNA:RNA)
RNA: B1 RNA with C26G, A27C, G28A, G30U, A31C
DNA 1: CAATCTGAATTCCGGTCTCCC
DNA 2: TGGTGGCTACGACGGGATT
B18: ACAUUGA (DNA:RNA)
RNA: B1 RNA with U25A, G28U, A29U
DNA 1: CAATCTGAATTCCGGTCTCCC
DNA 2: TGGTGGCTACGACGGGATT
B19: GUACUAA (DNA:RNA)
RNA: B1 RNA with U25G, C26U, G28C, A29U, G30A
DNA 1: CAATCTGAATTCCGGTCTCCC
DNA 2: TGGTGGCTACGACGGGATT
B20: AGGGCAC (DNA:RNA)
RNA: B4 RNA with A26G, U27G, U28G, U29C, C30A, U31C
DNA 1: CAATCTGAATTCCGGTCTCCC
DNA 2: TGGTGGCTACGACGGGATT
B21: GAUGGAC (DNA:RNA)
RNA: B4 RNA with A25G, U28G, U29G, C30A, U31C
DNA 1: CAATCTGAATTCCGGTCTCCC
DNA 2: TGGTGGCTACGACGGGATT
B22: UGGACAA (DNA:RNA)
RNA: B1 RNA with C26G, A27G, G28A, A29C, G30A
DNA 1: CAATCTGAATTCCGGTCTCCC
DNA 2: TGGTGGCTACGACGGGATT
B23: GAAUGCA (DNA:RNA)
RNA: B4 RNA with A25G, U27A, U29G, U31A
DNA 1: CAATCTGAATTCCGGTCTCCC
DNA 2: TGGTGGCTACGACGGGATT
B24: CGGAAGU (DNA:RNA)
RNA: B1 RNA with U25C, C26G, A27G, G28A, A31U
DNA 1: CAATCTGAATTCCGGTCTCCC
DNA 2: TGGTGGCTACGACGGGATT
B25: GUCAUGC (DNA:RNA)
RNA: B4 RNA with A25G, A26U, U27C, U28A, C30G, U31C
DNA 1: CAATCTGAATTCCGGTCTCCC
DNA 2: TGGTGGCTACGACGGGATT
B26: GGUAUAC (DNA:RNA)
RNA: B4 RNA with A25G, A26G, U28A, C30A, U31C
DNA 1: CAATCTGAATTCCGGTCTCCC
DNA 2: TGGTGGCTACGACGGGATT
B27: UUAGUUU (DNA:RNA)
RNA: B1 RNA with C26U, A29U, G30U, A31U
DNA 1: CAATCTGAATTCCGGTCTCCC
DNA 2: TGGTGGCTACGACGGGATT
B28: GAGACAA (DNA:RNA)
RNA: B4 RNA with A25G, U27G, U28A, U29C, C30A, U31A
DNA 1: CAATCTGAATTCCGGTCTCCC
DNA 2: TGGTGGCTACGACGGGATT
B29: CUCUAAA (DNA:RNA)
RNA: B1 RNA with U25C, C26U, A27C, G28U, G30A
DNA 1: CAATCTGAATTCCGGTCTCCC
DNA 2: TGGTGGCTACGACGGGATT
B30: GAGGUAA (DNA:RNA)
RNA: B4 RNA with A25G, U27G, U28G, C30A, U31A
DNA 1: CAATCTGAATTCCGGTCTCCC
DNA 2: TGGTGGCTACGACGGGATT
B31: UCGAGCC (DNA:RNA)
RNA: B1 RNA with A27G, G28A, A29G, G30C, A31C
DNA 1: CAATCTGAATTCCGGTCTCCC
DNA 2: TGGTGGCTACGACGGGATT

The experiment concerns the target T1, RBFOX1 RRM RbFoxmut (Fox-RRM*) (Homo sapiens, UniProt Q9NWB1 109-208, R118D;E147R;N151S;E152T).
T1 sequence: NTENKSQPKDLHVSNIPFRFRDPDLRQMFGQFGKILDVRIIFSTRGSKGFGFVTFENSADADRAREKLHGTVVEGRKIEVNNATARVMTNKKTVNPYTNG
Nature of the experiment: EMSA; HiTS-Eq, 1 nM pool, 10 min; buffer printed only for the single-RNA assays: 10 mM Tris pH 7.5, 150 mM NaCl, 3.4 mM EDTA, 0.001% NP-40, 30 C. To be noted: tags: His6 N-terminal (pET28a); label: 5' 32P. The gist of the method:
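Purified wild-type or mutant RbFox RRM at increasing concentrations was equilibrated with 1 nM of 5′-radiolabelled RNA carrying 7 randomized nucleotides for 10 min in 50 µL. Unbound RNA was separated by 8% native PAGE and sequenced. Relative association constants came from read-count changes of each RNA species compared with the control reaction, normalised to the cognate motif.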
For orientation: Mobility shift assays separate free from complexed probe on a gel.
B1: the binding signal was 0.0855 KA relative to UGCAUGU. To B2 belongs 0.142 KA relative to UGCAUGU; to B3, 0.0465 KA relative to UGCAUGU. The figure for B4 is 0.078 KA relative to UGCAUGU; for B5 it is 0.0608 KA relative to UGCAUGU; for B6 it is 0.12 KA relative to UGCAUGU. As to B7, the binding signal was 0.0903 KA relative to UGCAUGU. To B8 belongs 0.131 KA relative to UGCAUGU; to B9, 0.183 KA relative to UGCAUGU. The figure for B10 is 0.061 KA relative to UGCAUGU. Consider B11, for which the binding signal was 0.124 KA relative to UGCAUGU. The figure for B12 is 0.0631 KA relative to UGCAUGU; for B13 it is 0.102 KA relative to UGCAUGU; for B14 it is 0.0829 KA relative to UGCAUGU. To B15 belongs 0.0818 KA relative to UGCAUGU. To B16 belongs 0.0663 KA relative to UGCAUGU; to B17, 0.102 KA relative to UGCAUGU; to B18, 0.118 KA relative to UGCAUGU. As to B19, the binding signal is 0.102 KA relative to UGCAUGU. The figure for B20 is 0.0707 KA relative to UGCAUGU; for B21 it is 0.0517 KA relative to UGCAUGU. As for B22, the binding signal is 0.0543 KA relative to UGCAUGU. The figure for B23 is 1.03 KA relative to UGCAUGU; for B24 it is 0.0941 KA relative to UGCAUGU; for B25 it is 0.19 KA relative to UGCAUGU. On to B26, for which the binding signal is 0.0792 KA relative to UGCAUGU. To B27 belongs 0.103 KA relative to UGCAUGU. As for B28, the binding signal is 0.0523 KA relative to UGCAUGU. The figure for B29 is 0.0846 KA relative to UGCAUGU; for B30 it is 0.103 KA relative to UGCAUGU.

For the molecule B31, the binding signal was 0.154 KA relative to UGCAUGU.
